# In the supplement of paper PMC3334620:
# Whole data set: some 33,000 sequences, median “E-score (-0.5 to 0.5)” near -0.01, cut for the highest 2% near 0.26. This is one part of the list.
# Target: Ste12 (UniProt P13574)
# Assay: PBM E-score (8-mer binding enrichment) (E-score (-0.5 to 0.5)); higher = stronger / more preferred TF binding; most listed sequences are background and not binding sites
# Conditions: protein concentration: 200 nM; construct: GST-DNA-binding domain
# Procedure: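 Universal 'all 10-mer' protein binding microarrays (Agilent AMADID 015681) probed with GST-tagged S. cerevisiae TFs (full-length or DBD) made by in vitro transcription/translation (PURExpress), about 100-200 nM. Bound TF was detected with fluorescent anti-GST. Each ungapped 8-mer (which stands for itself and its reverse complement) is scored by the PBM enrichment score (E-score), a modified Wilcoxon-Mann-Whitney statistic from -0.5 to +0.5, computed with the Universal PBM Analysis Suite. Scale: above 0.35 generally sequence-specific binding.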
row,Sequence,PBM E-score
1,GGTCATAC,-0.122
2,GCCCCTCA,0.0515
3,CTGGAGTA,0.0818
4,CTGTGCGA,-0.0121
5,AAACAGCA,0.148
6,AACAAAGA,0.166
7,CTAGACCC,-0.1
8,TGTTTCAA,0.484
9,ATTTCCGA,0.2
10,GCAATATA,0.149
11,AAGTCTGC,-0.0539
12,AAAGCGCG,-0.167
13,ATCCCGGC,0.0289
14,CTATCGGA,-0.0218
15,AAGCACAC,-0.175
16,CTAATCCC,-0.0288
17,CAGGCTGG,-0.0209
18,AGACCTTG,-0.0557
19,CGATCTAG,-0.0912
20,ACTCCGAT,-0.124
21,ATGGGCTC,-0.0877
22,ACTAATAA,0.0582
23,CGCGTACG,0.0078
24,AAACCTCC,-0.0187
25,AGTTCTGC,-0.15

row,Sequence,PBM E-score
1,ACGCCTAA,0.0463
2,ACCCCCAA,-0.153
3,AGACTTCG,-0.151
4,GCTACGGA,-0.12
5,CAACACGC,-0.247
6,CGCCCATC,-0.0222
7,CGTGAGTC,-0.333
8,CGCCCATA,0.0427
9,TAGTCAGA,-0.153
10,GCCGTGTA,-0.066
11,GGTGTGAC,0.0514
12,CAACACTC,-0.0395
13,ATTGATAC,0.255
14,CACATAAA,0.115
15,CCATGGGC,-0.092
16,CATTCTCG,0.0187
17,ACGTCATC,-0.243
18,GCCGACCC,-0.215
19,ACTGTTGC,-0.00433
20,GAGTCAAA,-0.0609
21,AGCTAAGA,0.0238
22,CAGAGCCC,-0.129
23,CCGTGGGA,-0.179
24,CCTACCTA,-0.0846
25,AAAGCCGA,-0.0348

row,Sequence,PBM E-score
1,GGCGGTCA,-0.138
2,TAGTTAAA,0.133
3,CATGATCC,0.198
4,GCGCCGAA,0.011
5,ACCCAGCC,-0.185
6,AATTGCAG,0.0243
7,ACGGCACG,-0.215
8,CGTATGTA,-0.0515
9,TACTCACA,0.00428
10,GAGGGTCC,-0.093
11,AACTCATG,0.129
12,CCTTGACC,-0.137
13,GGCGAGAA,0.0222
14,AGTCCGTG,-0.204
15,CTGAACTA,-0.0292
16,CGTCGTAG,0.00142
17,CGAGCGAA,0.0454
18,TTGCCCAA,-0.0393
19,GTCGAGAC,0.0464
20,GAAATGTA,0.176
21,CGTCTGCA,-0.113
22,CGAGTGAA,0.0152
23,CGCTCAGC,-0.0662
24,CCACGTCA,-0.182
25,GATCGTGA,-0.113

row,Sequence,PBM E-score
1,CAGATACG,-0.00918
2,AAACGCCT,0.109
3,AGATATGA,0.141
4,AAAAAGTT,0.214
5,GGACATCA,0.0203
6,AGATGTTA,-0.0366
7,TGAATTCA,0.0662
8,AGGGTCAC,-0.274
9,CCAATCCG,0.281
10,GAGGGTTA,-0.06
11,TAAATGTA,0.13
12,AGCAAATC,0.0689
13,GGAGAGGA,-0.252
14,AATGTAAC,0.187
15,CCCCGCAC,0.0613
16,TGACCGCA,0.0567
17,CAGAATAC,0.0945
18,AAATCTCA,0.155
19,GTCTGAGA,0.0877
20,GACTTCCA,-0.155
21,CATCTCAA,0.0216
22,CTCGAAGA,-0.138
23,ATCTAGAC,-0.0851
24,ACAGGAGG,-0.183
25,GCGACGGA,-0.0402

row,Sequence,PBM E-score
1,ATAGAGCC,-0.0936
2,AGATATAC,-0.0578
3,AATGGAGG,-0.0279
4,CTGCGAAC,-0.101
5,AAGGACAG,-0.0445
6,GTTAGGTA,0.107
7,ATATCGTA,0.122
8,ATCCGCAG,0.0339
9,CGCTATAG,-0.135
10,GCACGTAA,-0.128
11,GTCTTCCA,-0.122
12,ACATAATG,0.192
13,ATAATTAC,0.131
14,ACGATAAT,0.149
15,GTCTTCAC,-0.195
16,GGGGCCTA,-0.135
17,CTATCAAG,0.0393
18,GTAGTAAA,0.0578
19,ACAACTAC,0.116
20,AGAAACGC,-0.0309
21,ATGTCCGG,-0.0692
22,ACCGGCTA,-0.119
23,GGAAGCGA,-0.0821
24,GCTTGACC,-0.172
25,AAGGATAA,-0.00803

row,Sequence,PBM E-score
1,AAAGGAGA,0.0107
2,ATATTAGA,0.0159
3,GTGTTAAA,0.0458
4,CCATGCCG,-0.0654
5,AAAGACTC,-0.162
6,CCAAGGTA,-0.0647
7,GGCAGGTA,-0.224
8,ATCCGAAT,0.192
9,CTGTGATA,-0.00798
10,CCGGAACG,0.0336
11,AAGGATCT,-0.0695
12,AGCAGGAA,-0.194
13,ATAGACTG,-0.155
14,CGAAACTC,0.121
15,GAATCATC,0.112
16,CATCTGAA,0.2
17,AGTCAGGC,0.154
18,GCAAGAGA,-0.175
19,GGCGGTTA,-0.022
20,GCTCGTAC,-0.0219
21,ACCGATTC,0.0153
22,TCGAACCA,0.166
23,CGTCGTCA,-0.11
24,CTATCAGA,0.185
25,ACGCGCGC,0.122

row,Sequence,PBM E-score
1,AAACCCCA,0.103
2,AGCATTAA,0.0565
3,CTGTGGTC,-0.223
4,ACGACCAG,-0.127
5,TGTATTAA,0.256
6,AATACATG,0.0375
7,CGATATTC,0.0243
8,ACCTCTAA,0.0525
9,AGGCTGGG,-0.125
10,GGTCCCGA,0.0669
11,CGCGCTAC,0.00148
12,GCCGGATA,0.027
13,GGGTTTCA,0.435
14,TGTCAACA,-0.079
15,ATAGCCTC,-0.00677
16,AAACTTGG,0.185
17,ACTCGGTG,-0.152
18,ACACGGAG,0.00989
19,CTCTTTCC,0.00615
20,CCTACTGA,0.121
21,ATGTAACC,0.143
22,CAGACAAC,-0.0294
